# In PubChem BioAssay AID1347165 (National Center for Advancing Translational Sciences (NCATS), 2019):
# Hit rate of the full screen: of about 220,000 compounds, about 5,700 (2.6%) were called active. The inconclusive results got no clear call from the source; some entries with a clear call stand among them for comparison. The call rests on the fitted dose curve; in most records, active means well fitted inhibition curve with a large enough effect; inconclusive means small, poorly fitted or top-dose-only effect; inactive means no such curve, though single readings can be large or run the other way. A potency beside an inconclusive call is a rough fit, not a confirmed value.
# Molecular target: Lysine-specific demethylase 5B (Homo sapiens) (UniProt Q9UGL1)
# UniProt Q9UGL1, sequence (Q9UGL1 whole entry, looked up): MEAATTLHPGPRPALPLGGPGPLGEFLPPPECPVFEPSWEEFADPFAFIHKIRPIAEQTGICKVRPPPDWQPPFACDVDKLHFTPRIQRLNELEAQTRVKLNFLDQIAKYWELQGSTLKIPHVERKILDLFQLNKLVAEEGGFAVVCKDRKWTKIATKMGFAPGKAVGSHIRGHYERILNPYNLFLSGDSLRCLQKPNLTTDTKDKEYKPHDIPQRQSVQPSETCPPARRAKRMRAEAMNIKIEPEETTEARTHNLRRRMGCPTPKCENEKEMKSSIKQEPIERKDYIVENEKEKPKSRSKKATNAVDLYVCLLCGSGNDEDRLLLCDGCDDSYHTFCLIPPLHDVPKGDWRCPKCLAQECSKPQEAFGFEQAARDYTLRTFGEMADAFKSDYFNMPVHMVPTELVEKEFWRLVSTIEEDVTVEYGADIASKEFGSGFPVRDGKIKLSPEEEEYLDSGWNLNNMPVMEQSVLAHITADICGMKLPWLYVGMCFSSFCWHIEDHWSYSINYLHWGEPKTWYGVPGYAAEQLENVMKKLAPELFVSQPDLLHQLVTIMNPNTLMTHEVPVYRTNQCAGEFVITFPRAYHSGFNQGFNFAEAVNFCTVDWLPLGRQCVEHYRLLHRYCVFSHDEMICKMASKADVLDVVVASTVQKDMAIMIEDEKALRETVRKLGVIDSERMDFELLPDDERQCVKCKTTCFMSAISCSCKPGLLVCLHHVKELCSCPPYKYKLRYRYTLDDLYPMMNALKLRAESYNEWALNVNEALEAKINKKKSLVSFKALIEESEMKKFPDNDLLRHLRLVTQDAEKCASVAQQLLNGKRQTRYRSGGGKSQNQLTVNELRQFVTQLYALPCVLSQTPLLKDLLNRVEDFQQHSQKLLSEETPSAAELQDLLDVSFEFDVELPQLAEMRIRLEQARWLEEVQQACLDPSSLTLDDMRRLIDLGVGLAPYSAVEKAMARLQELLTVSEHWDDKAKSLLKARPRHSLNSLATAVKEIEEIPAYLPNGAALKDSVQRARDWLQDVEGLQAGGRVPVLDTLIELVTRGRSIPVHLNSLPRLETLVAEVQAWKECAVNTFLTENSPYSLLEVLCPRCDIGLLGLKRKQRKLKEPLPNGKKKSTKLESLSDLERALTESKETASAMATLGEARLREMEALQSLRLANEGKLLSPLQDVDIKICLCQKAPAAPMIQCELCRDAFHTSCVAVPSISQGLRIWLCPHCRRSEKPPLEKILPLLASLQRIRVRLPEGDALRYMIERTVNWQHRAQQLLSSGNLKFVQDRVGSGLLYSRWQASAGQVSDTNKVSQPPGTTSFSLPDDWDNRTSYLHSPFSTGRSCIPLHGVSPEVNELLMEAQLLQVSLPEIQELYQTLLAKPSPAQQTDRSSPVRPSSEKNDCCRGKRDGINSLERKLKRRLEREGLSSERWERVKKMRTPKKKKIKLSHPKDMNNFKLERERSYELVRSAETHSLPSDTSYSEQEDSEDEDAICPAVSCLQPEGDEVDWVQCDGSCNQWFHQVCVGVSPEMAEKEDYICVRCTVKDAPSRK
# Test: Primary screen for KDM5B Histone Demethylases FDH-coupled qHTS; further: nearly all actives have a fitted effect of over 70% in size; on activity change, negative = inhibition: 0% is about no effect
# Conditions: FDH-coupled NADH fluorescence (FDH is formaldehyde dehydrogenase); activity change, negative = inhibition: at 57.7 µM (top of the series) unless noted
# Summary of the method: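 KDM5BΔAP (200 nM final) in 50 mM HEPES pH 7.5, 0.01% Tween-20 was preincubated 10 min at RT with compound over a concentration range. Substrate mix (H3K4me3 12.5 µM, α-KG 25 µM, Fe²⁺, ascorbate, NAD⁺, FDH) was added, and NADH fluorescence change over 30 min gave dose-response curves.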
# Potency means the concentration at half of the fitted maximal effect; tags describe the fitted curve by direction and shape.
Structure (SMILES),"activity change, negative = inhibition",Potency
CCNC(=O)NC(=O)COC(=O)CCCc1c[nH]c2ccccc12,inactive: 4.03%,–
N#Cc1nc(-c2ccco2)oc1NCc1ccc(F)cc1,–,"inconclusive: 22.4 µM [inhibitor, partial curve, poor fit]"
CCCCN(C)C(=O)c1ccc2c(c1)NC(=O)C(CC(C)C)N2 (centres undefined),–,"inconclusive: 31.6 µM [inhibitor, single point]"
CC(C)NC(=O)CN1CCN(C(=O)c2cc(-c3ccccn3)nc3ccccc23)CC1,inactive: -19.5%,–
N#Cc1cccc(-c2cn3c(n2)N(C(=O)c2ccncc2)CCC3)c1,–,active: 20 µM
O=C(NCc1cccnc1)c1nc(-c2ccc(Cl)cc2Cl)c2ccccn12,–,active: 79.4 µM
COc1ccccc1C(=O)N1CCC(N2CCN(c3ccccc3OC)CC2)CC1,–,"inconclusive: 2.51 µM [inhibitor, full curve, poor fit]"
CCOC(=O)C1=CN(CC(=O)Nc2c(C)cc(C)cc2C)S(=O)(=O)N=C1C,inactive: 34.1%,–
CCC(=O)Nc1ccc(Cl)cc1C,inactive: -3.1%,–
O=C(Nc1ccc(F)cc1)c1cnc(N2CCCCC2)c2ccccc12,–,"inconclusive: 25.1 µM [inhibitor, partial curve, poor fit]"
Cc1nnn2c(C(=O)N(C)C)cccc12,–,"inconclusive: 31.6 µM [inhibitor, single point]"
O=C(Nc1ccc(Br)cc1)c1cc(S(=O)(=O)N2CCc3ccccc32)ccc1F,–,"inconclusive: 28.2 µM [inhibitor, single point]"
CCOc1ccccc1CNC(=O)CN1C(=O)c2cccnc2Oc2ccc(C)cc21,–,"inconclusive: 15.8 µM [inhibitor, partial curve, poor fit]"
CC(C)C[C@@H]1N[C@H](C(=O)O)Cc2cn(Cc3ccncc3)c3cccc1c23,–,"inconclusive: 17.8 µM [inhibitor, single point]"
COc1ncc(-c2n[nH]c3c2CC(=O)N(CCOc2ccccc2)C3)cn1,–,"inconclusive: 11.2 µM [inhibitor, partial curve, poor fit]"
COc1cccc(NC(=O)c2c(C)oc3ccn(Cc4ccc(F)cc4)c(=O)c23)c1,–,"inconclusive: 31.6 µM [inhibitor, partial curve, poor fit]"
Cc1cc(N2CCCN(Cc3cnn4c(C)cc(C)nc34)CC2)ccn1,inactive: -1.45%,–
CC(C)(C)CC(=O)Nc1ccc([C@@H](O)[C@H]2COCC(=O)N2Cc2ccc(F)cc2)cc1,–,"inconclusive: 0.891 µM [inhibitor, partial curve, poor fit]"
COc1ccc2nc(N(Cc3cccnc3)C(=O)c3ccc(Cl)cc3)sc2c1,–,"inconclusive: 50.1 µM [inhibitor, single point]"
